Source: PubChem BioAssay AID504332 (National Center for Advancing Translational Sciences (NCATS), 2011)
Out of some 350,000 compounds screened, about 31,000 (8.9%) were called active. Inconclusive means that the source gave no clear call. Such entries were picked first, then a sample of the others. Calls follow the shape of the dose curve; as a rule, active = well fitted inhibition curve with a large enough effect; inconclusive = small, poorly fitted or top-dose-only effect; inactive = no such curve, though single readings can be large or run the other way. Potencies beside an inconclusive call are fits to weak or partial responses and may not hold up.

molecular target: Histone-lysine N-methyltransferase EHMT2 (Homo sapiens) (UniProt Q96KQ7); assay: qHTS Assay for Inhibitors of Histone Lysine Methyltransferase G9a; conditions: G9a H3K9 monomethylation, AlphaScreen, 2 h; activity, negative = inhibition: at 59 µM (top of the series) unless noted; also: nearly all actives have a fitted effect of over 75% in size
Method in brief: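 Step 1: enzyme (final 20 nM) with compound, 15 min RT. Step 2: substrate peptide 500 nM and SAM 20 uM, 2 h RT. Step 3: anti-H3K9me1 antibody and AlphaScreen beads, 10 min, then plate read.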
% is scaled to controls: 0 for no effect and ±100 for the full control effect; potency is read from the fitted curve at half-maximal effect; tags tell the direction and shape of the fitted curve.

UniProt Q96KQ7, sequence (Q96KQ7 whole entry, looked up): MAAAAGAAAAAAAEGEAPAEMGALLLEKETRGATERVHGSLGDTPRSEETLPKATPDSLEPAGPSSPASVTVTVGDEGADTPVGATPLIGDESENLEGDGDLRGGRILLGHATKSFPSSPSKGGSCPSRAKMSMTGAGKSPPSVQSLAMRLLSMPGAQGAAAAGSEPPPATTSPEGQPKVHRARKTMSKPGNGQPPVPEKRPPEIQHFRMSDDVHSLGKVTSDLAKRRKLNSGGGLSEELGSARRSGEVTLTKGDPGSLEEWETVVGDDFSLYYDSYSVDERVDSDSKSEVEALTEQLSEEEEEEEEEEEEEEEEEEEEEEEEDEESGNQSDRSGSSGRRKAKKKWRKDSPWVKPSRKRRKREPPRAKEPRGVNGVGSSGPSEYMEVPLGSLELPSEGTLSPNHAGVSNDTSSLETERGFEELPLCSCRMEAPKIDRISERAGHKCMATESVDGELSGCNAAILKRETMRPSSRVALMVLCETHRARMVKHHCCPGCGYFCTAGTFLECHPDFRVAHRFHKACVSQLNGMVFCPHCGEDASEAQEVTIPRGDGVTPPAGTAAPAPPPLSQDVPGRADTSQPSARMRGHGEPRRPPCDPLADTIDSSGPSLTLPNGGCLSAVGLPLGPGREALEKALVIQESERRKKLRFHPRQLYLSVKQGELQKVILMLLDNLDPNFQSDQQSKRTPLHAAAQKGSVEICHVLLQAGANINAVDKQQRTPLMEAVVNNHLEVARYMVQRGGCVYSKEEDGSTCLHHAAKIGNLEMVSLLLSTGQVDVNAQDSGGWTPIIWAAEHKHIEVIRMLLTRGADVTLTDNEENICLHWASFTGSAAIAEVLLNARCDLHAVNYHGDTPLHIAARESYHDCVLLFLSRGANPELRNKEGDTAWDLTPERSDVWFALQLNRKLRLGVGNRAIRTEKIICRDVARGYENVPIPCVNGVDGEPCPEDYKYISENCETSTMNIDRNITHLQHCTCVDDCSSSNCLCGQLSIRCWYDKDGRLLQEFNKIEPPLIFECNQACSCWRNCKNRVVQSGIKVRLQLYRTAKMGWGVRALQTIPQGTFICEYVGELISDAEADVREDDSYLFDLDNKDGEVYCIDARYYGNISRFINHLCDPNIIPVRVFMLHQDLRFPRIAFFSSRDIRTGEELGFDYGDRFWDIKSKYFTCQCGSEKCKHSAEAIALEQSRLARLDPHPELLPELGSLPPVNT

Structure (SMILES) | Potency | activity, negative = inhibition
O=S(=O)(NCCC(c1ccc(F)cc1)c1ccco1)c1ccccc1 (stereo not given) | inconclusive: 50.1 µM [inhibitor, partial curve] | –
Cc1ccc(Nc2ccc3cc(S(=O)(=O)N4CCC(C)CC4)ccc3n2)c(Cl)c1 | active: 15.8 µM | –
Cc1ccccc1Nc1cc(C(=O)NCc2ccco2)c2ccccc2n1 | inconclusive: 79.4 µM [inhibitor, partial curve, poor fit] | –
O=C(CCn1c(=O)c2sccc2n(Cc2ccccc2F)c1=O)NCc1ccc2c(c1)OCO2 | – | inactive: -4.72%
COCCCNC(=O)CCc1c(C)c2cc3c(C)coc3cc2oc1=O | – | inactive: -3.09% [at 102 µM]
CCC(=O)N(CCC(c1ccc(C)cc1)c1ccco1)Cc1ccco1 (stereo not given) | inconclusive: 50.1 µM [inhibitor, partial curve] | –
COc1cc(CN2CCCCC2C(=O)Nc2ccc(Oc3ccccc3)nc2)ccc1O (stereo not given) | active: 5.62 µM | –
COc1ccc(NC(=S)N(Cc2cccnc2)Cc2ccco2)cc1 | inconclusive: 56.2 µM [inhibitor, partial curve, poor fit] | –
CCn1c(SCC(=O)N2CCCC2)nc2ccccc21 | – | inactive: 4.21% [at 102 µM]
Cc1cc(NC(=O)CCc2nc3cccnc3n2-c2ccccc2)ccc1Br | inconclusive: 7.08 µM [inhibitor, partial curve, poor fit] | –
Cc1ccc(Cl)cc1-c1ccc(C=Nc2ccc(N3CCOCC3)cc2)o1 | inconclusive: 12.6 µM [inhibitor, partial curve, poor fit] | –
Cc1cccc(-c2nnc(NC(=O)c3ccc(N4C(=O)CCC4=O)cc3)s2)c1 | inconclusive: 89.1 µM [inhibitor, single point] | –
COC(=O)Cn1c(C2CC(=O)N(c3c(C)cccc3C)C2)nc2ccccc21 (stereo not given) | active: 14.1 µM | –
CNC(=O)CC1C(=O)N(c2ccc(Cl)cc2)C(=S)N1NC(=O)c1cccc(F)c1 (stereo not given) | inconclusive: 79.4 µM [inhibitor, single point] | –
COc1ccc(CCN(C)C(=O)COC(=O)/C=C/c2ccc(C)o2)cc1OC | active: 35.5 µM | –
COc1ccc(C(=O)CN2CCN(c3cc(C)nc4ccccc34)CC2)cc1 | active: 12.6 µM | –
Nc1nc(OCC2CCCCC2)c2[nH]cnc2n1 | – | inactive: -1.67% [at 12.7 µM]
CCC(c1nnnn1C1CCCC1)N1CCN(Cc2ccccc2)CC1 (stereo not given) | inconclusive: 39.8 µM [inhibitor, single point] | –
O=C(/C=C/c1ccco1)NC(=S)Nc1ccc(C(=O)O)cc1 | active: 10 µM | –
ClC1(Cl)CC1CSc1nnc(-c2ccncc2)o1 (stereo not given) | inconclusive: 89.1 µM [inhibitor, single point] | –
Cc1csc2ncc(C(=O)Nc3ccc4c(c3)OCCO4)c(=O)n12 | inconclusive: 39.8 µM [inhibitor, partial curve, poor fit] | –
CCNC(=S)NNC(=O)c1cc(-c2cccc(OCC)c2)nc2ccccc12 | inconclusive: 12.6 µM [inhibitor, partial curve, poor fit] | –
COc1ccc2[nH]c(C(=O)N(Cc3ccccn3)Cc3ccccn3)cc2c1 | inconclusive: 50.1 µM [inhibitor, partial curve, poor fit] | –
COc1cccc(N2C(=O)C3CCCN3C2c2cccs2)c1 (stereo not given) | – | inactive: -46.3% [at 102 µM]
CCOC(=O)N1CCC(NC(=O)C(CC(C)C)NC(=O)C2CCC(C)CC2)CC1 (stereo not given) | inconclusive: 0.631 µM [inhibitor, partial curve, poor fit] | –

Structure (SMILES) | Potency | activity, negative = inhibition
COc1ccc2cc(-c3nc4ccccc4n3C)c(=O)oc2c1 | inconclusive: 39.8 µM [inhibitor, single point] | –
CS(=O)(=O)N1CCC(C(=O)N2CCN(c3ccccc3F)CC2)CC1 | – | inactive: 2%
CC(C)CCN(C(=O)CNC(=O)c1ccco1)C(C(=O)NC1CCCCC1)c1ccco1 (stereo not given) | inconclusive: 89.1 µM [inhibitor, single point] | –
Cc1nnc(SCc2ccccc2)nc1/C=C/NOCc1ccc(Cl)cc1Cl | inconclusive: 28.2 µM [inhibitor, single point] | –
O=C(Nc1ccc(F)cc1F)C1CCN(c2ncccn2)CC1 | – | inactive: 0.175%
O=C(CSc1nnc(-c2cccnc2)n1Cc1ccco1)Nc1cccc(O)c1 | inconclusive: 25.1 µM [inhibitor, single point] | –
CCOc1ccccc1NC(=O)C1CCN(S(=O)(=O)c2c(C)noc2/C=C/c2ccco2)CC1 | inconclusive: 1.78 µM [inhibitor, partial curve, poor fit] | –
Cc1ccc(OCCC(=O)OCC(=O)Nc2ccc3[nH]c(=O)[nH]c3c2)cc1 | inconclusive: 35.5 µM [inhibitor, partial curve, poor fit] | –
O=C(CCC1CCCC1)NNC(=O)c1ccc(F)cc1 | inconclusive: 3.55 µM [inhibitor, partial curve, poor fit] | –
O=C(c1ccc(F)cc1F)N(Cc1ccccn1)Cc1ccco1 | active: 22.4 µM | –
COc1ccc(-c2csc(Nc3ncccc3C)n2)cc1OC | inconclusive: 0.891 µM [inhibitor, single point] | –
CCN(CC)c1ncnc2c1cnn2-c1cc(Cl)ccc1C | – | inactive: -3.22%
Cc1c(C(=O)N/N=C/c2ccc(O)c(Br)c2)sc(N)c1C#N | – | inactive: 24.6%
COc1ccc(CC(=O)Nc2c(C(=O)N3CCN(c4ccccc4)CC3)oc3ccccc23)cc1OC | active: 70.8 µM | –
COc1cc(SC)ccc1C(=O)N1CCN(S(=O)(=O)/C=C/c2ccccc2)CC1 | – | inactive: -8.92%
Cc1cccc2sc(NC(=O)C3CCN(C(=O)c4ccco4)CC3)nc12 | inconclusive: 89.1 µM [inhibitor, single point] | –
CC1=NOC(=O)/C1=C/c1ccc(-c2ccc(Cl)cc2)o1 | active: 4.47 µM | –
COc1cccc(NC(=O)NC2(C(F)(F)F)Oc3ccccc3O2)c1 | active: 3.55 µM | –
NC(=O)CC[C@H](N)C(=O)O | – | inactive: 46.6% [at 12.7 µM]
O=C1c2ccccc2C(=O)C1c1ccc(Br)cc1 | inconclusive: 1 µM [inhibitor, full curve, poor fit] | –
COc1ccc(NC(=S)NNC(=O)c2ccccc2OC(F)F)cc1 | inconclusive: 6.31 µM [inhibitor, single point] | –
O=C(c1ccc2c(c1)OCCO2)N(c1ccccn1)C1CCCCC1 | – | inactive: -10.9% [at 102 µM]
COc1cc(/C=C2\C(=O)N(CCC#N)N=C2C)ccc1OCC(=O)Nc1ccccc1 | – | inactive: 22%
CCCCn1c(CCC(=O)O)nc2cc(S(=O)(=O)N(C)C)ccc21 | – | inactive: 5.26% [at 102 µM]
O=C(CCn1c(=O)c2ccccc2n(CC(=O)Nc2cccc(F)c2)c1=O)NCCc1ccccc1 | – | inactive: 6.2%

Structure (SMILES) | Potency | activity, negative = inhibition
CCN(CC)C(=O)c1ccc2c(=O)n(CCOC)c(=S)[nH]c2c1 | active: 44.7 µM | –
CCOc1ccccc1NC(=O)/C(C#N)=C/c1c(C)nn(-c2ccccc2)c1Cl | – | inactive: 2.23%
Cn1c(=O)cc(SCC(=O)NCC2COc3ccccc3O2)c2ccccc21 (stereo not given) | inconclusive: 0.282 µM [inhibitor, full curve, poor fit] | –
Cc1cccc(-n2c(SCC(N)=O)nnc2-c2ccccn2)c1C | – | inactive: -37.1% [at 102 µM]
Cc1ccc(C(=O)Nc2ccc3c(c2)OCO3)o1 | – | inactive: 3.68% [at 12.7 µM]
O=C(Nc1cc(Cl)ccc1F)c1ccc(-n2cncn2)c([N+](=O)[O-])c1 | active: 56.2 µM | –
CCOC(=O)c1cccc(NC(=O)CCSCCc2ccccn2)c1 | – | inactive: -3.74%
CCC(C)(C)n1nnnc1C(c1cc2cc(C)cc(C)c2[nH]c1=O)N1CCN(C(=O)c2ccco2)CC1 (stereo not given) | inconclusive: 39.8 µM [inhibitor, single point] | –
N#C/C(=C(/O)CSc1ncn[nH]1)c1nc2ccccc2[nH]1 | inconclusive: 50.1 µM [inhibitor, partial curve] | –
CCC(C)Nc1nc2c(C)cccn2c(=O)c1C=Nc1ccc(OC)cc1 (stereo not given) | inconclusive: 39.8 µM [inhibitor, partial curve, poor fit] | –
CCc1ccc(NC(=O)CSc2nnc(CNC(=O)c3cccs3)o2)cc1 | inconclusive: 89.1 µM [inhibitor, single point] | –
O=C(CCCn1c2ccccc2c(=O)c2ccccc21)Nc1cccc(Cl)c1 | – | inactive: 101%
CC(C)CC(=O)NC(c1cccs1)c1ccc2cccnc2c1O (stereo not given) | – | inactive: 9.81% [at 102 µM]
O=C1c2ccccc2NC(c2cccs2)N1O (stereo not given) | active: 31.6 µM | –
COc1ccc(CN2CCCC(C(=O)N3CCCCC3)C2)cc1OC (stereo not given) | active: 2.82 µM | –
CCOC(=O)c1ccc(NC(=O)CN2CCN(CCN=CC3=C(O)CC(C)(C)CC3=O)CC2)cc1 | – | inactive: -1.81%
CCc1ccc2c(CN3CCN(S(=O)(=O)c4ccc5c(c4)OCCO5)CC3)cc(=O)oc2c1 | inconclusive: 0.891 µM [inhibitor, full curve] | –
COc1ccc(OC)c(S(=O)(=O)N2C(C)CCCC2C)c1 (stereo not given) | inconclusive: 70.8 µM [inhibitor, partial curve] | –
N#Cc1ccccc1N=Cc1ccc(Br)cc1 | – | inactive: 4.71%
O=C(CN1CCN(c2ccccc2)CC1)N/N=C/c1cccc(F)c1 | – | inactive: -1.7%
CCOC(=O)c1nnc(-c2ccc(C)cc2)nc1Sc1ccccc1Cl | inconclusive: 44.7 µM [inhibitor, partial curve] | –
CCN(Cc1cc2ccccc2[nH]c1=O)S(=O)(=O)c1ccccc1 | inconclusive: 50.1 µM [inhibitor, partial curve, poor fit] | –
CC(C)n1nc(C(=O)Nc2nc3ccccc3[nH]2)c2ccccc2c1=O | – | inactive: -33.3% [at 102 µM]
O=C(NCCc1ccc(Cl)cc1)c1c2c(nc3ccccc13)C(=O)N(C1CCCCC1)C2 | – | inactive: 13.3%
CC(=O)c1c(C)[nH]c(C(=O)Nc2ccc3c(c2)OCCO3)c1C | inconclusive: 35.5 µM [inhibitor, partial curve] | –
